# Reference: the supplement of paper PMC4967469
# Legend:
# Experiment in all cases: Viability of human cancer cell lines after 72 h of drug (GDSC screen)
# [1] = compound: O=c1cc(-c2cccc3c2Sc2ccccc2S3)oc(N2CCOCC2)c1 [KU-55933]; settings: top dose 10 µM
# Experimental: (§1)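 Human cancer cell lines in 384-well plates, medium with 10% serum, drug for 72 h over a 256-fold dose range (nine 2-fold or five 4-fold steps up to the top dose). Adherent lines were fixed and stained with the nucleic acid dye Syto60, suspension lines read with resazurin; signal relative to control wells, capped at 0 and 100%. One two-parameter sigmoid per drug and line, fitted in a mixed model over all curves with the slope shared within a line.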
# [2] = compound: Cc1ccc(-c2c(C(=O)CCl)n(CCCO)c3ncnc(N)c23)cc1 [CMK]; settings: top dose 4 µM; top dose inferred
# Experimental: as §1
# [3] = compound: C[C@]1(c2nc3c(C(N)=O)cccc3[nH]2)CCCN1 [ABT-888]; settings: top dose 5 µM; top dose inferred
# Experimental: as §1
# [4] = compound: COc1cc2ncnc(-n3nc(-c4ccccn4)nc3N)c2cc1OC [CP466722]; settings: top dose 16 µM; top dose inferred
# Experimental: as §1
# [5] = compound: COc1cc(N2CCC(O)CC2)ccc1Nc1cc(Nc2ccccc2S(=O)(=O)C(C)C)c2cc[nH]c2n1 [MPS-1-IN-1]; settings: top dose 20 µM; top dose inferred
# Experimental: as §1
# [6] = compound: C=CC(=O)Nc1cc(-n2c(=O)ccc3cnc4ccc(-c5cn[nH]c5)cc4c32)ccc1C [QL-X-138]; settings: top dose 10.24 µM; top dose inferred
# Experimental: as §1
# [7] = compound: C/C=C(/C)C(=O)O[C@H]1C(C)=C2[C@H]([C@@H]1OC(=O)CCCCCCC)[C@@](C)(OC(C)=O)C[C@H](OC(=O)CCC)[C@@]1(O)[C@H]2OC(=O)[C@@]1(C)O [Thapsigargin]; settings: top dose 0.512 µM; top dose inferred
# Experimental: as §1
# [8] = compound: Cc1ccc(F)c(NC(=O)Nc2ccc(-c3cccc4[nH]nc(N)c34)cc2)c1 [ABT-869]; settings: top dose 1.024 µM; top dose inferred
# Experimental: as §1
# [9] = compound: CCn1c(-c2nonc2N)nc2cnc(Oc3cccc(NC(=O)c4ccc(OCCN5CCOCC5)cc4)c3)cc21 [GSK269962A]; settings: top dose inferred
# Experimental: as §1
# [10] = compound: Cc1cnc(-c2cnc(NCCNc3ccc(C#N)cn3)nc2-c2ccc(Cl)cc2Cl)[nH]1 [CHIR-99021]
# Experimental: as §1
# [11] = compound: Nc1ccn([C@@H]2O[C@H](CO)[C@@H](O)[C@@H]2O)c(=O)n1 [Cytarabine]; settings: top dose 2 µM
# Experimental: as §1
# [12] = compound: COc1nc(C)cnc1NS(=O)(=O)c1cccnc1-c1ccc(-c2nnco2)cc1 [Zibotentan]; settings: top dose 20 µM; top dose inferred
# Experimental: as §1
# [13] = compound: COc1cc(O)c2c(c1)/C=C/C[C@H](O)[C@H](O)C(=O)/C=C\C[C@H](C)OC2=O [(5Z)-7-Oxozeaenol]; settings: top dose 10 µM; top dose inferred
# Experimental: as §1
# [14] = top dose 2.5 µM, screen: GDSC drug entry 127
# [15] = top dose 5 µM, screen: GDSC drug entry 1192
# [16] = top dose 2.56 µM, screen: GDSC drug entry 154
# [17] = top dose 10 µM, screen: GDSC drug entry 1241, top dose inferred
Cell Line,AUC [1],IC50 [1] [µM],AUC [2],IC50 [2] [µM],AUC [3],IC50 [3] [µM],AUC [4],IC50 [4] [µM],AUC [5],IC50 [5] [µM],AUC [6],IC50 [6] [µM],AUC [7],IC50 [7] [µM],AUC [8],IC50 [8] [µM],"AUC [9, 14]","IC50 [9, 14] [µM]","AUC [9, 15]","IC50 [9, 15] [µM]","AUC [10, 16]","IC50 [10, 16] [µM]","AUC [10, 17]","IC50 [10, 17] [µM]",AUC [11],IC50 [11] [µM],AUC [12],IC50 [12] [µM],AUC [13],IC50 [13] [µM]
"NCI-H1395 (lung adenocarcinoma, adherent)",0.935,> 10,0.958,> 4,0.977,> 5,0.898,> 16,0.978,> 20,0.915,> 10.2,0.673,0.115,0.981,> 1.02,0.952,> 2.5,0.854,> 5,0.982,> 2.56,0.939,> 10,0.848,> 2,0.981,> 20,0.9,> 10
"NCI-H1417 (small cell lung carcinoma, suspension)",0.946,> 10,0.931,> 4,0.981,> 5,0.892,> 16,0.908,> 20,0.973,> 10.2,0.847,0.491,0.887,> 1.02,0.818,1.76,0.745,1.84,0.969,> 2.56,0.974,> 10,0.386,0.0571,0.975,> 20,0.509,0.662
"NCI-H1436 (small cell lung carcinoma, suspension)",0.977,> 10,0.986,> 4,0.969,> 5,0.896,> 16,0.933,> 20,0.771,4.48,0.939,> 0.512,0.983,> 1.02,0.803,1.46,0.754,1.89,0.985,> 2.56,0.936,> 10,0.983,> 2,0.984,> 20,0.774,4.49
"NCI-H1648 (lung adenocarcinoma, adherent)",0.897,> 10,0.922,> 4,0.984,> 5,0.707,3.99,0.843,15.5,0.734,3.12,0.171,0.00295,0.983,> 1.02,0.983,> 2.5,0.984,> 5,0.961,> 2.56,0.818,6.11,0.927,> 2,0.972,> 20,0.843,7.75
"NCI-H1694 (small cell lung carcinoma, suspension)",0.987,> 10,0.875,3.9,0.989,> 5,0.827,9.7,0.937,> 20,0.771,3.89,0.665,0.0918,0.986,> 1.02,0.972,> 2.5,0.89,> 5,0.989,> 2.56,0.975,> 10,0.967,> 2,0.988,> 20,0.707,2.39
"NCI-H1770 (non-small cell lung carcinoma, suspension)",0.992,> 10,0.942,> 4,0.992,> 5,0.908,> 16,0.888,17.6,0.958,> 10.2,0.294,0.00918,0.992,> 1.02,0.986,> 2.5,0.93,> 5,0.972,> 2.56,0.989,> 10,0.992,> 2,0.989,> 20,0.89,9.06
"NCI-H1836 (small cell lung carcinoma, suspension)",0.988,> 10,0.975,> 4,0.985,> 5,0.901,> 16,0.984,> 20,0.852,9.15,0.855,0.474,0.988,> 1.02,0.963,> 2.5,0.936,> 5,0.988,> 2.56,0.986,> 10,0.988,> 2,0.988,> 20,0.874,> 10
"NCI-H1838 (lung adenocarcinoma, adherent)",0.834,8.53,0.982,> 4,0.973,> 5,0.93,> 16,0.955,> 20,0.946,> 10.2,0.971,> 0.512,0.987,> 1.02,0.986,> 2.5,0.927,> 5,0.986,> 2.56,0.934,> 10,0.956,> 2,0.986,> 20,0.897,> 10
"NCI-H1869 (lung squamous cell carcinoma, adherent)",0.857,9.86,0.972,> 4,0.983,> 5,0.791,8.25,0.979,> 20,0.839,8.31,0.531,0.0393,0.98,> 1.02,0.958,> 2.5,0.809,3.04,0.968,> 2.56,0.934,> 10,0.882,> 2,0.985,> 20,0.418,0.362
"NCI-H1876 (small cell lung carcinoma, adherent)",0.951,> 10,0.873,3.91,0.987,> 5,0.819,9.27,0.971,> 20,0.573,1.02,0.847,0.383,0.984,> 1.02,0.93,> 2.5,0.967,> 5,0.987,> 2.56,0.986,> 10,0.865,1.81,0.978,> 20,0.856,8.22
"NCI-H2081 (small cell lung carcinoma, suspension)",0.985,> 10,0.988,> 4,0.977,> 5,0.857,14.2,0.972,> 20,0.83,6.94,0.874,> 0.512,0.988,> 1.02,0.97,> 2.5,0.93,> 5,0.989,> 2.56,0.988,> 10,0.882,> 2,0.989,> 20,0.969,> 10
"NCI-H2135 (non-small cell lung carcinoma, adherent)",0.981,> 10,0.974,> 4,0.985,> 5,0.899,> 16,0.802,9.52,0.715,2.54,0.317,0.01,0.991,> 1.02,0.983,> 2.5,0.964,> 5,0.988,> 2.56,0.99,> 10,0.991,> 2,0.978,> 20,0.974,> 10
"NCI-H2141 (small cell lung carcinoma, suspension)",0.989,> 10,0.918,> 4,0.991,> 5,0.878,15.5,0.932,> 20,0.804,4.97,0.676,0.0975,0.991,> 1.02,0.991,> 2.5,0.985,> 5,0.99,> 2.56,0.99,> 10,0.985,> 2,0.99,> 20,0.726,2.69
"NCI-SNU-1 (stomach, suspension)",0.962,> 10,0.977,> 4,0.986,> 5,0.751,5.44,0.783,8.72,0.7,2.39,0.413,0.0184,0.978,> 1.02,0.886,> 2.5,0.961,> 5,0.988,> 2.56,0.969,> 10,0.963,> 2,0.984,> 20,0.772,3.98
"NCI-SNU-5 (stomach, suspension)",0.987,> 10,0.961,> 4,0.971,> 5,0.982,> 16,0.989,> 20,0.958,> 10.2,0.643,0.0799,0.987,> 1.02,0.964,> 2.5,0.984,> 5,0.989,> 2.56,0.982,> 10,0.797,0.959,0.989,> 20,0.771,3.9
"NH-12 (neuroblastoma, adherent)",0.95,> 10,0.959,> 4,0.981,> 5,0.751,5.83,0.806,11.7,0.71,2.73,0.48,0.028,0.978,> 1.02,0.982,> 2.5,0.909,> 5,0.919,> 2.56,0.901,> 10,0.77,0.85,0.972,> 20,0.451,0.451

# IC50 is the fitted dose that halves viability relative to control wells, and lower means more sensitive; where the fit passes the top or lowest dose, that dose stands as a limit. AUC sums up the same curve from the lowest dose to the 256-fold higher top dose: 1 means no effect, lower means more sensitive. For part of these data: The top dose, if marked as inferred, was calculated from the reported fits. For part of these data: Where an entry number is given, a second screen of the drug exists; the two often differ.
